# Data reported in the supplement of paper PMC11417369.
# ± gives the standard deviation of the averaged measurements. The list shows a part of the results.
# Tested on: PfAP2-G AP2 domain (GST-tagged)
# Assay: gcPBM binding intensity (ln(normalized median fluorescence intensity)); higher = stronger DNA binding
# Method in brief: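 Binding intensity values are the highest Masliner-normalised natural-log median intensity among replicate spots of either probe orientation. The binding step lasted 1 h in 1× PBS with 1% milk, 0.2 mg/ml BSA, 0.5% salmon testes DNA and 0.03% Triton X-100, using GST-tagged P. falciparum DNA-binding domains expressed in E. coli on an Agilent 4 × 180k array of primer-extended double-stranded 36-bp intergenic genomic probes plus negative controls. Alexa488 anti-GST antibody and a 488 nm scan detected bound protein.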
row,Sequence,gcPBM binding intensity (ln)
1,TCTCCACCTCTCTTGGTGCGTTATACCCTCGAGGCT,9.83 ± 0.071
2,TATAACAAAATATTCACACATATAAGTAAATAAAGG [CACACA_site5777],10.04 ± 0.057
3,TCAAAGCACCCATACACACACATATATATATATATA [CACACA_site4317],10.4 ± 0.47
4,GTACGTTACATAAATGTGCACATATTATATGCGAAG,10.9 ± 0.3
5,GTCATATATATATGTACACACATATATATATTTATA [CACACA_site1459],11.3 ± 0.92
6,TTTTTTTTTTGTTGAGTGCAATTATTTGTAAGAAAA,10.2 ± 0.4
7,AAATTAATATATAAAAGTACCCATATATTTAATATA [XGTACX_site3551],11.1 ± 0.64
8,AAGACTGCACTTTAAGCACACAAATATATTTTTTTT [CACACA_site8337],10.18 ± 0.064
9,AAGAAAAAAATTTAATTAAATGAAATTTTTGAATTA [TGCATGCA_negctrl_site25],9.69 ± 0.099
10,TTCTGACTTGTTATAATTTGTATATCCGAAAAAATT [TGCATGCA_negctrl_site456],10.1 ± 0.16
11,ACTATTATTAAAAATTGTACTTTCTATAAATTTTTT [XGTACX_site7825],11.1 ± 0.62
12,ATTTTGTGTAGTGATGCATGTTATATATATATTTGA [TGCATGCA_site422],10.01 ± 0.078
13,AGAAACATATGGTAGTGTACTGTAAATTTATTCTTT [XGTACX_site8602],11.3 ± 0.77
14,TTTTATTGTTTTTTTTTTTTTTCTTTTTTTTTTTTT [CACACA_negctrl_site1094],9.79 ± 0.39
15,CGTTATTATACACATACACACAGGAATAAAAAATTA [CACACA_site7373],10.2 ± 0.26
16,ATAACATCAGTATTATGTACATATGTAGGTAAATAA [XGTACX_site7066],11.1 ± 0.65
17,TTTTGTTTAATATTCACACATATATATTTTTTATTT [CACACA_site5496],9.82 ± 0.16
18,CTTTTTATTTAGGAGGTGCATGTAATACGGAACATA,10.4 ± 0.41
19,TATGAATAAAAAAGAAGTACAAATTATATGAACGCA [XGTACX_site3018],11.5 ± 0.66

row,Sequence,gcPBM binding intensity (ln)
1,AAAAAATACAAACACACACACACACCCATATATATA [CACACA_site3560],10.1 ± 0.27
2,GATCTATACATGGGGACACACATCACTCTATATTTT [CACACA_site3408],11.1 ± 0.59
3,ATTTGTTATATATTCTTTTATGTTAATAATTCGAAT [CACACA_negctrl_site378],9.72 ± 0.071
4,CATACTGTTATAAAATGTACGCATATACACACACAT [XGTACX_site7256],11.4 ± 0.83
5,ATATATATATTTATATGTACGAAATATAAAAAAAAA [XGTACX_site5054],10.9 ± 0.45
6,CTTTTTTTTTTTTTTACACACCCAAATCACATACAT [CACACA_site4051],10.6 ± 0.66
7,GAATAATATATATATTGTACTTTTTATTTATATTAT [XGTACX_site3180],11.3 ± 1
8,AAAATATAATATAATGCACACATAAAACAAAAAAAA [CACACA_site8989],10 ± 0.24
9,AAAAAAAAATTAATATATAAAAGGATATATATATAT [GTGCAC_negctrl_site449],9.77 ± 0.46
10,ATATATATATATATATGTACATATATACATATACAT [XGTACX_site2350],11.1 ± 0.62
11,ACATATAAATATATTACACACACACTAAAAAAATAA [CACACA_site6209],10.1 ± 0.15
12,CACCTTATAAATACTGCACACATAAAATATATATTA [CACACA_site8908],10.3 ± 0.17
13,CTTATCAAAAAAAAAGCATGCCACAGGCAAAAGGTA [TGCATGCA_site574],9.8 ± 0.2
14,ATCCTTTATTTTTTTTGTACATAAAAATAACTCGAG [XGTACX_site3885],11.1 ± 0.62
15,AAATTACAAATACAAACACACAAATGTTTTTCATTC [CACACA_site3552],9.63 ± 0.18
16,TTTTTCTATAAAAAATGTACATATTTTATGAAGGAA [XGTACX_site821],11.2 ± 0.71
17,TTAAAAAACCTTAGATGTACAGTTATATATAAAATA [XGTACX_site6688],11.4 ± 0.98
18,ATATAAAAATGTGTATGTACACACTTTATTTTTAAT [XGTACX_site5272],11.4 ± 0.74
19,AGGTATCAAAAATATGCATGCAATATTTTATGTAAT [TGCATGCA_site1055],9.81 ± 0.2

row,Sequence,gcPBM binding intensity (ln)
1,TGAACACACGAGCACACACACACATCTATATTTATA [CACACA_site6607],10.3 ± 0.2
2,TGGAATAATACGCGTACACACATATATATATTAATA [CACACA_site131],11.8 ± 0.97
3,AAAAATAAATTTAGTTGTACTTTATTATTTTAAATA [XGTACX_site3067],11.2 ± 0.76
4,AATCAATAAATAAAAACATGCATATATATATATATA [TGCATGCA_site438],9.95 ± 0.42
5,TTTTTTTTTTTTTTTTGTACGTATCAAAAAATTTGT [XGTACX_site1023],11.3 ± 1.1
6,ATTTTTTTACTGTAACCATATTTTTCCCTTTTATTC [CACACA_negctrl_site1143],10.21 ± 0.078
7,ATAATATATATATATAGTACATATATATAATATTCT [XGTACX_site2445],10.7 ± 0.71
8,CATTAATAAAAAAAAAGTACAAAAAATATATATATT [XGTACX_site2091],11.4 ± 0.78
9,AAAATAAAAATATTCACACATACAAAAATTATACAA [CACACA_site5136],9.88 ± 0.042
10,ATAGACAGCGCACAAACACACAAACACCCACCCACA [CACACA_site8043],10.5 ± 0.28
11,AGTGATACTAATTTTTGTACGCATAAAAGAATATTC [XGTACX_site6055],11.5 ± 0.88
12,TATATTGATGATGATAGTACGTATGATTAGAAAAAA [XGTACX_site8989],11 ± 0.61
13,AAGAAAAACTTTACGTGTACCAAACATCCTGCCAAC [XGTACX_site598],11.1 ± 0.41
14,AAAAAAAAAAAAATACGTACATACATACCTACATAT [XGTACX_site233],11.5 ± 0.93
15,TATATATATATGTGTACACAATTTATCTGTATTTAT [CACACA_site5945],11.8 ± 0.93
16,ATATTTCTGTCAAGCACACATAATATTAAAATATGT [CACACA_site4330],10.2 ± 0.28
17,ATTTAGAAAAATAAAACACACATATAGATGTAAATA [CACACA_site7853],9.87 ± 0.099
18,TTAATATGATATATATATATATATATATATATATAT [CACACA_negctrl_site683],9.81 ± 0.51
19,GTAAAAATTTTAAATACATGCAAGCGATTAATATGA [TGCATGCA_site80],9.87 ± 0.17
